Source: PubChem BioAssay AID686979 (National Center for Advancing Translational Sciences (NCATS), 2013)
Hit rate of the full screen: of about 420,000 compounds, about 50,000 (12%) were called active. Inconclusive means that the source gave no clear call. Such entries were picked first, then a sample of the others. Calls come from the whole dose curve; as a rule, active = well fitted inhibition curve with a large enough effect; inconclusive = small, poorly fitted or top-dose-only effect; inactive = flat fitted curve, though single readings scatter. Potencies of inconclusive entries are left out as doubtful fits.

Experiment: qHTS for Inhibitors of human tyrosyl-DNA phosphodiesterase 1 (TDP1): qHTS in cells in presence of CPT; note: nearly all actives have a fitted effect of over 55% in size
Conditions: chicken DT40 Tdp1-/-;hTDP1 cells + 20 nM CPT, ATP luminescence, 48 h; series mostly up to 46.2 µM
Outline: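 Chicken DT40 Tdp1-/- cells complemented with human TDP1, 400 cells/well, exposed to compounds plus 20 nM camptothecin for at least 48 h at 37 C; viability read as ATP content by CellTiter-Glo luminescence.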
Potency is the fitted concentration of half-maximal effect; tags give direction and shape of the fitted curve.

Compound	Potency
CCOC(=O)CSc1n[nH]c(NC(=O)c2cccc(C(F)(F)F)c2)n1	inactive
Cc1ccc(/C=C2\SC(=S)N(CCC(=O)N3CCOCC3)C2=O)cc1	active: 16.4 µM
Nc1cc(=O)[nH]c(SCc2csc(-c3ccccc3)n2)n1	inconclusive [inhibitor, single point]
Cc1cccc(OCc2nnc(SCC(=O)N(C)C3CCCCC3)o2)c1	active: 18.4 µM
O=C(CCS(=O)(=O)c1cccc2nsnc12)NC1CCCCC1	inactive
CN(C)c1ccc(C(=O)C(=O)N2CCN(c3ccccc3)CC2)cc1	inconclusive [inhibitor, single point]
O=[N+]([O-])c1ccc(N2CCN(S(=O)(=O)c3ccccc3[N+](=O)[O-])CC2)cc1NCc1cccnc1	inconclusive [inhibitor, single point]
COc1ccc(-c2csc3ncnc(NCCO)c23)cc1	inconclusive [inhibitor, partial curve, poor fit]
O=C(O)CC/C(=C/c1cccc(NC(=O)c2ccccc2Cl)c1)c1nc2ccccc2s1	inactive
Cc1cccc(C)c1NC(=O)C(C1CC1)n1c(-c2ccc(=O)[nH]c2)nc2ccccc21 (stereo not given)	inactive
O=C1CC(c2ccccc2)CC2=C1CN(C1CCCCC1)CN2 (stereo not given)	inconclusive [inhibitor, single point]
CCN(CC)C(=O)COC(=O)c1cc(-c2ccco2)nc2ccccc12	inconclusive [inhibitor, partial curve]
N=C1C=CC(=C(c2ccc(N)cc2)c2ccc(N)cc2)C=C1	active: 2.91 µM
O=Cc1ccc(OCCCOc2cccc3cccnc23)cc1	inactive
CCOC(=O)c1nc(NCCc2ccccc2)sc1C	inconclusive [inhibitor, single point]
O=C(Nc1cccc(C(=O)O)c1)/C(=C\c1ccc2c(c1)OCO2)NC(=O)c1ccccc1Br	inactive
Clc1ccc(C[n+]2cc(-c3ccc(Cl)cc3)n3c2CCC3)cc1	active: 4.61 µM
O=C(CSc1nc2c([nH]c3ccccc32)c(=O)n1-c1ccc(Cl)cc1)NCc1ccccc1	inconclusive [inhibitor, single point]
Cc1n[nH]c(=S)n1/N=C/c1ccc(-c2ccc(Cl)cc2)o1	inactive
Cn1c(NCc2ccco2)nc2c1c(=O)n(Cc1ccc(Cl)cc1)c(=O)n2C	inconclusive [inhibitor, single point]
CCc1nc(N2CCN(S(C)(=O)=O)CC2)c2c3c(sc2n1)CCCC3	inconclusive [inhibitor, single point]
C#CCN(C[C@@H]1[C@@H](OC(=O)NCc2ccccc2F)[C@@H](OC(=O)NCc2ccccc2F)Cn2c(=O)n(CCCCCC)c(=O)n21)S(=O)(=O)c1ccc(C)cc1	inconclusive [inhibitor, single point]
COc1cc(C(=O)Nc2ccc3c(c2)CCN3C(C)=O)cc(OC)c1OC	inconclusive [inhibitor, full curve]
CCc1ccc(CNC(=O)CN2C(=O)CSc3ccc(S(=O)(=O)N4CCOCC4)cc32)cc1	inactive

Compound	Potency
COc1cccc(C(=O)N(Cc2ccc(N(C)C)cc2)Cc2ccco2)c1	inconclusive [inhibitor, single point]
COc1ccc(C2c3ccc(O)cc3Oc3ncn(CCN4CCOCC4)c(=N)c32)cc1OC (stereo not given)	inactive
NC(=O)c1cccc(-c2ccnc3c2CC(C(=O)NCC2CC2)O3)c1 (stereo not given)	inactive
COc1ccccc1C(=O)NCC(=O)N/N=C/c1ccncc1	inactive
COc1ccc(N(C(=O)CCC(=O)Nc2cc(C)on2)C(C(=O)NC2CCCC2)c2ccco2)cc1 (stereo not given)	inactive
CC1=C(C(=O)Nc2cc(Cl)ccc2C)C(c2ccccc2F)n2ncnc2N1 (stereo not given)	inactive
CN1CCN(C(CNC(=O)C(=O)Nc2ccccc2C#N)c2ccc3c(c2)OCO3)CC1 (stereo not given)	inactive
Cc1cccc(CN2CCN(C3CN(Cc4ccc([N+](=O)[O-])cc4)S(=O)(=O)C3)CC2)c1 (stereo not given)	active: 16.4 µM
CCc1ccc(S(=O)(=O)NCc2cccn2Cc2cccc(C)c2)cc1	inconclusive [inhibitor, single point]
CCCCN(CCCC)Cc1cc2ccccc2c2c1COC2	active: 13 µM
Cc1cc(C=O)c(C)n1-c1ccc(NC2CCCCC2)c([N+](=O)[O-])c1	inconclusive [inhibitor, single point]
Cn1ccc2c(N3CCCCCCC3)cc3c(c21)C1CCC3O1 (stereo not given)	inconclusive [inhibitor, single point]
COc1ccc(C(=O)NCC(c2ccco2)N2CCc3ccccc3C2)cc1 (stereo not given)	inconclusive [inhibitor, single point]
Cc1ccc(Oc2ccc(OCC(=O)NC3CCS(=O)(=O)C3)cc2)cc1 (stereo not given)	active: 23.1 µM
O=C(Nc1cnn(Cc2ccc(F)cc2)c1)C(c1ccccc1)c1ccccc1	inconclusive [inhibitor, single point]
O=[N+]([O-])c1ccc(N/N=C/c2ccc(OCc3cccc4ccccc34)cc2)nc1	inactive
CCOC(=O)c1c(NC(=O)COC(=O)/C=C/c2ccco2)sc2c1CC(C)(C)NC2(C)C	inconclusive [inhibitor, single point]
COc1cccc2cc(C(=O)CC3(O)C(=O)N(Cc4ccccc4)c4ccccc43)c(=O)oc12 (stereo not given)	active: 13 µM
Cc1ccc(C(=O)N/N=C(\CC(C)C)c2ccccc2)cc1	inconclusive [inhibitor, single point]
CCOc1cc2[nH]c(=O)n(CCCC(=O)N(C)Cc3ccccc3)c(=O)c2cc1OCC	inconclusive [inhibitor, single point]
Cc1ccc2sc(N(CCCN(C)C)C(=O)c3ccco3)nc2c1C	inconclusive [inhibitor, single point]
CCn1c(=O)c(=O)n(CC)c2cc(N3CCCCC3)c(NC(=O)c3ccc(OC)c(OC)c3)cc21	active: 13 µM
COc1cc(C(=O)Nc2sc3c(c2C(N)=O)CCC(C)C3)cc(OC)c1OC (stereo not given)	inconclusive [inhibitor, partial curve]
CC(C)(C)C(C(=O)n1cccc1C#N)c1ccccc1 (stereo not given)	inconclusive [inhibitor, full curve, poor fit]

Compound	Potency
C[C@H](CO)N1C[C@H](C)[C@@H](CN(C)Cc2ccc(-c3ccccc3)cc2)Oc2c(NC(=O)Nc3ccc(C(F)(F)F)cc3)cccc2C1=O	active: 8.2 µM
Cc1cccc(N2CCN(C(=O)COc3ccc4ccc(=O)oc4c3)CC2)c1C	inconclusive [inhibitor, single point]
Cc1ccccc1NC(C)C(=O)N/N=C/c1ccccc1OCc1cccc(Br)c1 (stereo not given)	inconclusive [inhibitor, single point]
COc1cc(OC)c(NC(=O)CCc2nc(-c3cccs3)no2)cc1Cl	inconclusive [inhibitor, single point]
COC(=O)c1ccc(NC(=O)CC2C(=O)N(c3cccc(F)c3)C(=O)N2CC(C)C)cc1 (stereo not given)	active: 20.6 µM
Cc1c(C(=O)NCc2ccc(F)cc2)oc2ccc(S(=O)(=O)N3CCOCC3)cc12	inconclusive [inhibitor, single point]
COc1ccc(S(=O)(=O)N2CCOCC2)cc1NC(=O)COc1ccc(C(C)=O)cc1OC	inactive
C=CCOC(=O)C1=C[C@H](C(C)(C)C)[C@@H](CCCO)[C@H](OCC)O1	inconclusive [inhibitor, single point]
N/C(=N\OC(=O)CCc1ccccc1)c1cccnc1	inconclusive [inhibitor, full curve, poor fit]
Cc1ccccc1NC(=O)c1cc2ccccn2n1	inconclusive [inhibitor, partial curve]
C[C@H](O)[C@@H]1CN2CCc3c([nH]c4ccccc34)[C@@H]2C[C@@H]1N(C)C(=O)Nc1cc(Cl)cc(Cl)c1	inconclusive [inhibitor, single point]
N=c1sccn1CC(=O)NC(c1ccccc1)c1ccccc1	inconclusive [inhibitor, partial curve]
COc1ccc(NC(=O)Cn2nnnc2-c2ccccc2F)c(C)c1	inactive
COCCCn1c(=N)c(C(=O)NCc2ccc3c(c2)OCO3)cc2c(=O)n3cccc(C)c3nc21	inactive
CN(C(=O)c1cccc(NC(=O)Cc2ccc(NC(=O)C3CCN(S(=O)(=O)c4cccc([N+](=O)[O-])c4)CC3)cc2)c1)C1CCC1	inconclusive [inhibitor, single point]
Cc1ccc(S(=O)(=O)Nc2cccnc2)cc1	inconclusive [inhibitor, partial curve, poor fit]
CC(C)CC(=O)Nc1ccc(Nc2ccccc2)cc1	inactive
CCOc1ccccc1OCCCC(=O)N1CCN(S(=O)(=O)c2ccc(C)cc2C)CC1	active: 20.6 µM
O=C(Nc1ccc2[nH]ncc2c1)c1ccc(F)cc1	inactive
O=S(=O)(N/N=C\c1ccc(-c2ccccc2Cl)o1)c1ccccc1	active: 11.2 µM
CCCC1=C(C(=O)OCC)C(c2cc(Cl)cc(OC)c2OCc2ccccc2)NC(=O)N1 (stereo not given)	inconclusive [inhibitor, single point]
C=CCn1cc(/C=N/NC(=O)COc2cccc3cccnc23)c2ccccc21	active: 14.6 µM
